# Measurements from the supplement of paper PMC3334620.
# Over roughly 33,000 sequences, “E-score (-0.5 to 0.5)” has its median near -0.032; the highest 2% begin near 0.36. The list shows a part of the results.
# Target: T1, Sko1 (UniProt Q02100)
# T1 sequence: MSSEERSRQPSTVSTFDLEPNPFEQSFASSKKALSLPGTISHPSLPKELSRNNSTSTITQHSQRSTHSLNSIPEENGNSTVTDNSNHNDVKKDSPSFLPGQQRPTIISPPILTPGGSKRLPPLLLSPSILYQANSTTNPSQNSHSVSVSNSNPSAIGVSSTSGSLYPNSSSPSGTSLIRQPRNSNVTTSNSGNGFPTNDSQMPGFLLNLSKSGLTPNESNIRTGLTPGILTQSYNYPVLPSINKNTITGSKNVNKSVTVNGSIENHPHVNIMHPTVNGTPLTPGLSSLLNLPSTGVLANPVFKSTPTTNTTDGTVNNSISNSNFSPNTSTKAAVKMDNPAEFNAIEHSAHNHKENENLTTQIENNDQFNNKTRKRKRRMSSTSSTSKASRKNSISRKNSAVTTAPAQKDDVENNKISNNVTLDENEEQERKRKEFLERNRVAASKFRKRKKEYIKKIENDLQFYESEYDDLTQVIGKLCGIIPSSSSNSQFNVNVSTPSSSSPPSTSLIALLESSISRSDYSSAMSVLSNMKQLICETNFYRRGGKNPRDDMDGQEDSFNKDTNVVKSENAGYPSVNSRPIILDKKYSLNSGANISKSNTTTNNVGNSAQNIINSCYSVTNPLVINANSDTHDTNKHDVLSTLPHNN
# Assay: PBM E-score (8-mer binding enrichment) (E-score (-0.5 to 0.5)); higher = stronger / more preferred TF binding; most listed sequences are background and not binding sites
# Details: protein concentration: 200 nM; construct: GST-full length
# Outline: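 E-scores (a modified Wilcoxon-Mann-Whitney statistic) were assigned by the Universal PBM Analysis Suite to every ungapped eight-base word pooled with its reverse complement. The input came from universal all-10-mer Agilent arrays made double-stranded by primer extension and probed with GST-tagged yeast transcription factors at about 100-200 nM. Fluorescent anti-GST detected bound protein, and masliner normalised the scans.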
row,Sequence,PBM E-score
1,AAGATAGA,-0.0614
2,CAGGTATA,0.143
3,AGCCGAAT,-0.104
4,AACGCTGG,-0.0614
5,ACGTATTC,0.471
6,CCTTATCG,0.0516
7,GCTTCGCC,-0.395
8,AGGTACGC,0.106
9,CCAGACCC,-0.305
10,ACCAGATG,-0.0283
11,CAGATTCG,-0.0271
12,CGGGCCCC,-0.275
13,GGTGACAC,-0.176
14,AGGCGCCA,-0.218
15,CCGAGGGA,-0.378
16,GGGACTCA,-0.277
17,TCGCACGA,0.0697
18,CCTGCTCC,-0.217
19,AATCATGA,0.216
20,TCAAGACA,0.0143
21,AGTTTGGC,-0.00421
22,AATAAAAG,0.225
23,CCAAGTCA,-0.234
24,AAAAACTT,0.102
25,CAAACAGG,-0.104

row,Sequence,PBM E-score
1,CAGCGGGC,-0.0987
2,CAGCTCCA,-0.236
3,AATACAAG,0.00246
4,CCGCCCCC,-0.372
5,CTCGAAAC,0.0832
6,AAGCAAAA,0.114
7,CACACGGG,-0.16
8,GCTTCATA,-0.157
9,CTGTGGGA,-0.196
10,CAAATACA,0.229
11,TAGAGAAA,-0.074
12,GCGATAGC,-0.0786
13,CTAATTTC,0.0649
14,CATGCGCG,0.0759
15,ATCGATCC,-0.0591
16,CTACGAGA,-0.033
17,ATGCTTGG,-0.0345
18,AGAAGAGA,-0.0845
19,ATTTTTCA,0.0809
20,AAGAAGTC,-0.0438
21,CCTCCCCG,-0.102
22,TAACCGCA,0.129
23,AGGAATTA,0.25
24,CGATCAAA,-0.0914
25,GGTCCGAC,-0.115

row,Sequence,PBM E-score
1,AATGGAGC,0.0282
2,GGGTTAAA,-0.0218
3,CTTCTGTA,0.0515
4,CAGTTTCG,-0.0121
5,GCGACCGA,0.0506
6,AACTTCCC,-0.0155
7,CGAGAAAG,-0.0586
8,AAGTTTGC,0.0635
9,CGAGCAGA,-0.331
10,GCCGCGGC,-0.26
11,AACGCACA,0.161
12,ATCATGGA,-0.0672
13,ATTTCCTC,0.129
14,CATAGCGG,-0.0652
15,AACTCGTA,0.262
16,CGCTCTGC,-0.0705
17,AGATATCA,0.192
18,TGGTATAA,0.191
19,GAACTTCC,-0.131
20,CATAACGC,0.258
21,CATAGCGC,0.103
22,AAGCTCAG,0.0194
23,TAAGCTCA,-0.111
24,AAACGAAA,0.263
25,CGTTTGAG,0.0755

row,Sequence,PBM E-score
1,CCACACGA,-0.00899
2,TAGGAACA,-0.0725
3,AACGCGTT,0.0918
4,GTTCCCCA,-0.0746
5,GATGTGAA,0.112
6,AAACTTCC,-0.186
7,GATATACC,0.0714
8,AGGAGGGC,-0.249
9,CTGGGAGC,-0.315
10,CCATTCCA,-0.215
11,CCATACCC,-0.162
12,CGGAGACA,-0.0938
13,CTGTGGGC,-0.0921
14,GGCACCGA,-0.111
15,AAAACATC,0.117
16,CAACAGAG,-0.0575
17,AACGCGTC,0.216
18,GCGAAATA,0.0332
19,GAAGCAAC,0.012
20,CGCGGTGA,-0.0136
21,ACCCTTAT,0.0332
22,CCCCCGGA,-0.278
23,AATCGCGC,0.0534
24,AAAATTCG,0.18
25,AGCTCACC,-0.262

row,Sequence,PBM E-score
1,AGTCCGAG,-0.174
2,ACAACCAT,0.155
3,AGCACTGG,-0.211
4,TACTACTA,0.144
5,CCACTGAG,-0.259
6,GATCCAAA,0.0541
7,ACCGCATC,-0.161
8,CGCGATTC,0.0398
9,AGATCACC,-0.0409
10,TACCGGGA,-0.133
11,AGTACAGA,-0.0198
12,AACATTAA,0.216
13,ACACTCGT,0.12
14,CTCATCTA,0.0872
15,CGAATCAG,0.0878
16,ATACCTAG,-0.115
17,AAGAGGAG,-0.219
18,GAGTTATC,-0.0537
19,CACCTTTA,0.0252
20,AGTGTGTA,0.111
21,CATCCCAC,-0.188
22,GATTCAAA,0.0963
23,CGGCGCCA,-0.212
24,CCTGACAC,-0.142
25,ACGCCCCG,-0.115

row,Sequence,PBM E-score
1,CAGAGCCG,-0.144
2,ACTAATGG,0.00996
3,GATAGTGC,-0.0918
4,CAAATTCA,-0.0704
5,AATGTCCA,-0.0107
6,CCACCCGC,-0.18
7,ACACCACT,-0.00904
8,GTTTGGGA,-0.0136
9,AACAAGCT,-0.0722
10,GTAATTGA,0.294
11,ATGGCAAT,0.0404
12,CTAGCTAC,-0.105
13,GACCGGGA,-0.299
14,GATTTACC,0.0967
15,AGATTAGA,-0.0113
16,GAGCTGCA,-0.203
17,AAGTTCGT,0.0356
18,ATGATTCA,0.0896
19,CCGTCATC,0.36
20,ATGACCTA,0.335
21,CGCGCCCC,-0.187
22,ACTAATCT,-0.0324
23,ACACGATC,-0.0431
24,AGGCTGGA,-0.281
25,CATCCGCC,-0.221

row,Sequence,PBM E-score
1,CTTTATAC,0.0517
2,CAGACTCC,-0.239
3,ACAAGTAA,0.108
4,CGCCAGAC,-0.194
5,GAATACCC,-0.232
6,CTGCGCTA,-0.259
7,GCCGGAGA,0.0304
8,CCATGACG,0.475
9,AGACGAGC,-0.127
10,GCCTCCAA,-0.179
11,TGAAATAA,0.195
12,CTAAAATC,0.0417
13,GCTTTTAA,-0.0723
14,CCGCATCG,-0.293
15,TACGAGAA,0.171
16,TCGCGAAA,0.084
17,GTGGTACA,0.11
18,AACAGGAG,-0.0497
19,CGCGTGAC,0.267
20,CGACATCC,0.0204
21,AAGGCAAA,0.0497
22,ACGTTCTA,0.225
